# Experimental data reported in the supplement of paper PMC8728848.
# This is one part of the list.
# B1: HML-Native (Hypnea musciformis), P84871 (protein)
# chain: QKFCTLDIAPVCCQIVIGGGMYTAGNACMCEGFVSGVGRCENPKECPCTREAQIPSCCSSRWGLVSVTGKCACDCLGGTVAFPEPCPSPY
# Experiments:
# Assay in all cases: glycan array binding signal (z-score within array); higher = stronger binding
# Settings in all cases: glycan notation: IUPAC condensed, linker removed
# [1] = biological target: Glc(b1-4)Glc
# Outline: (§1)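 Arrays were curated from the Consortium for Functional Glycomics database, 3228 in total, and kept only where the protein sequence was available. Binding is expressed as a within-array Z-score. This score was averaged across arrays of the same protein sequence at different concentrations or buffers and across linkers, and negative values can be read as non-binding.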
# [2] = biological target: Glc(b1-6)Glc
# Outline: as §1
# [3] = biological target: GlcA(b1-3)Gal
# Outline: as §1
# [4] = biological target: GlcA(b1-3)GlcNAc
# Outline: as §1
# [5] = biological target: GlcA(b1-6)Gal
# Outline: as §1
# [6] = biological target: GlcA3S(b1-3)Gal(b1-4)GlcNAc(b1-2)Man
# Outline: as §1
# [7] = biological target: GlcA3S(b1-3)Gal(b1-4)GlcNAc(b1-3)Gal(b1-4)Glc
# Outline: as §1
# [8] = biological target: GlcNAc(a1-3)Gal(b1-4)GlcNAc
# Outline: as §1
# [9] = biological target: GlcNAc(a1-4)Gal(b1-3)GlcNAc
# Outline: as §1
# [10] = biological target: GlcNAc(a1-4)Gal(b1-4)GalNAc
# Outline: as §1
# [11] = biological target: GlcNAc(a1-4)Gal(b1-4)GlcNAc
# Outline: as §1
# [12] = biological target: GlcNAc(a1-4)Gal(b1-4)GlcNAc(b1-3)Gal(b1-4)Glc
# Outline: as §1
# [13] = biological target: GlcNAc(a1-4)Gal(b1-4)GlcNAc(b1-3)Gal(b1-4)GlcNAc
# Outline: as §1
# [14] = biological target: GlcNAc(a1-4)Gal(b1-4)GlcNAc(b1-3)Gal(b1-4)GlcNAc(b1-3)Gal(b1-4)GlcNAc
# Outline: as §1
# [15] = biological target: GlcNAc(a1-4)Gal(b1-4)GlcNAc(b1-3)Gal(b1-4)[Fuc(a1-3)]GlcNAc(b1-3)Gal(b1-4)[Fuc(a1-3)]GlcNAc
# Outline: as §1
# [16] = biological target: GlcNAc(a1-6)Gal(b1-4)GlcNAc
# Outline: as §1
# [17] = biological target: GlcNAc(b1-2)Gal(b1-3)GalNAc
# Outline: as §1
# [18] = biological target: GlcNAc(b1-2)Man(a1-3)[GlcNAc(b1-2)Man(a1-6)]Man(b1-4)GlcNAc(b1-4)GlcNAc
# Outline: as §1
# [19] = biological target: GlcNAc(b1-2)Man(a1-3)[GlcNAc(b1-2)Man(a1-6)]Man(b1-4)GlcNAc(b1-4)[Fuc(a1-6)]GlcNAc
# Outline: as §1
# [20] = biological target: GlcNAc(b1-2)Man(a1-3)[GlcNAc(b1-4)][GlcNAc(b1-2)Man(a1-6)]Man(b1-4)GlcNAc(b1-4)GlcNAc
# Outline: as §1
# [21] = biological target: GlcNAc(b1-2)Man(a1-3)[GlcNAc(b1-4)][GlcNAc(b1-2)Man(a1-6)]Man(b1-4)GlcNAc(b1-4)[Fuc(a1-6)]GlcNAc
# Outline: as §1
# [22] = biological target: GlcNAc(b1-2)[GlcNAc(b1-4)]Man(a1-3)[GlcNAc(b1-2)Man(a1-6)]Man(b1-4)GlcNAc(b1-4)GlcNAc
# Outline: as §1
# [23] = biological target: GlcNAc(b1-2)[GlcNAc(b1-4)]Man(a1-3)[GlcNAc(b1-4)][GlcNAc(b1-2)Man(a1-6)]Man(b1-4)GlcNAc(b1-4)GlcNAc
# Outline: as §1
# [24] = biological target: GlcNAc(b1-2)[GlcNAc(b1-4)]Man(a1-3)[GlcNAc(b1-4)][GlcNAc(b1-2)[GlcNAc(b1-6)]Man(a1-6)]Man(b1-4)GlcNAc(b1-4)GlcNAc
# Outline: as §1
# [25] = biological target: GlcNAc(b1-2)[GlcNAc(b1-4)]Man(a1-3)[GlcNAc(b1-4)][GlcNAc(b1-2)[GlcNAc(b1-6)]Man(a1-6)]Man(b1-4)GlcNAc(b1-4)[Fuc(a1-6)]GlcNAc
# Outline: as §1
# [26] = biological target: GlcNAc(b1-2)[GlcNAc(b1-6)]Man(a1-6)[GlcNAc(b1-2)Man(a1-3)]Man(b1-4)GlcNAc(b1-4)GlcNAc
# Outline: as §1
# [27] = biological target: GlcNAc(b1-2)[GlcNAc(b1-6)]Man(a1-6)[GlcNAc(b1-2)Man(a1-3)]Man(b1-4)GlcNAc(b1-4)[Fuc(a1-6)]GlcNAc
# Outline: as §1
# [28] = biological target: GlcNAc(b1-2)[GlcNAc(b1-6)]Man(a1-6)[GlcNAc(b1-4)][GlcNAc(b1-2)Man(a1-3)]Man(b1-4)GlcNAc(b1-4)GlcNAc
# Outline: as §1
# [29] = biological target: GlcNAc(b1-3)Fuc
# Outline: as §1
# [30] = biological target: GlcNAc(b1-3)Gal
# Outline: as §1
# [31] = biological target: GlcNAc(b1-3)Gal(b1-3)GalNAc
# Outline: as §1
# [32] = biological target: GlcNAc(b1-3)Gal(b1-4)Glc
# Outline: as §1
# [33] = biological target: GlcNAc(b1-3)Gal(b1-4)GlcNAc
# Outline: as §1
# [34] = biological target: GlcNAc(b1-3)Gal(b1-4)GlcNAc(b1-2)Man(a1-3)[GlcNAc(b1-3)Gal(b1-4)GlcNAc(b1-2)Man(a1-6)]Man(b1-4)GlcNAc(b1-4)GlcNAc
# Outline: as §1
# [35] = biological target: GlcNAc(b1-3)Gal(b1-4)GlcNAc(b1-2)Man(a1-3)[GlcNAc(b1-3)Gal(b1-4)GlcNAc(b1-2)Man(a1-6)]Man(b1-4)GlcNAc(b1-4)[Fuc(a1-6)]GlcNAc
# Outline: as §1
# [36] = biological target: GlcNAc(b1-3)Gal(b1-4)GlcNAc(b1-2)[GlcNAc(b1-3)Gal(b1-4)GlcNAc(b1-6)]Man(a1-6)[GlcNAc(b1-3)Gal(b1-4)GlcNAc(b1-2)Man(a1-3)]Man(b1-4)GlcNAc(b1-4)GlcNAc
# Outline: as §1
# [37] = biological target: GlcNAc(b1-3)Gal(b1-4)GlcNAc(b1-3)Gal(b1-4)GlcNAc
# Outline: as §1
# [38] = biological target: GlcNAc(b1-3)Gal(b1-4)GlcNAc(b1-3)Gal(b1-4)GlcNAc(b1-2)Man(a1-3)[GlcNAc(b1-3)Gal(b1-4)GlcNAc(b1-3)Gal(b1-4)GlcNAc(b1-2)Man(a1-6)]Man(b1-4)GlcNAc(b1-4)GlcNAc
# Outline: as §1
# [39] = biological target: GlcNAc(b1-3)Gal(b1-4)GlcNAc(b1-3)Gal(b1-4)GlcNAc(b1-2)Man(a1-3)[GlcNAc(b1-3)Gal(b1-4)GlcNAc(b1-3)Gal(b1-4)GlcNAc(b1-2)Man(a1-6)]Man(b1-4)GlcNAc(b1-4)[Fuc(a1-6)]GlcNAc
# Outline: as §1
# [40] = biological target: GlcNAc(b1-3)Gal(b1-4)GlcNAc(b1-3)Gal(b1-4)GlcNAc(b1-2)[GlcNAc(b1-3)Gal(b1-4)GlcNAc(b1-3)Gal(b1-4)GlcNAc(b1-6)]Man(a1-6)[GlcNAc(b1-3)Gal(b1-4)GlcNAc(b1-3)Gal(b1-4)GlcNAc(b1-2)Man(a1-3)]Man(b1-4)GlcNAc(b1-4)[Fuc(a1-6)]GlcNAc
# Outline: as §1
# [41] = biological target: GlcNAc(b1-3)Gal(b1-4)GlcNAc(b1-3)Gal(b1-4)GlcNAc(b1-3)Gal(b1-4)GlcNAc(b1-2)Man(a1-3)[GlcNAc(b1-3)Gal(b1-4)GlcNAc(b1-3)Gal(b1-4)GlcNAc(b1-3)Gal(b1-4)GlcNAc(b1-2)Man(a1-6)]Man(b1-4)GlcNAc(b1-4)GlcNAc
# Outline: as §1
# [42] = biological target: GlcNAc(b1-3)Gal(b1-4)GlcNAc(b1-3)Gal(b1-4)GlcNAc(b1-3)Gal(b1-4)GlcNAc(b1-2)Man(a1-3)[GlcNAc(b1-3)Gal(b1-4)GlcNAc(b1-3)Gal(b1-4)GlcNAc(b1-3)Gal(b1-4)GlcNAc(b1-2)Man(a1-6)]Man(b1-4)GlcNAc(b1-4)[Fuc(a1-6)]GlcNAc
# Outline: as §1
# [43] = biological target: GlcNAc(b1-3)Gal(b1-4)GlcNAc(b1-3)Gal(b1-4)GlcNAc(b1-3)Gal(b1-4)GlcNAc(b1-2)[GlcNAc(b1-3)Gal(b1-4)GlcNAc(b1-3)Gal(b1-4)GlcNAc(b1-3)Gal(b1-4)GlcNAc(b1-6)]Man(a1-6)[GlcNAc(b1-3)Gal(b1-4)GlcNAc(b1-3)Gal(b1-4)GlcNAc(b1-3)Gal(b1-4)GlcNAc(b1-2)Man(a1-3)]Man(b1-4)GlcNAc(b1-4)[Fuc(a1-6)]GlcNAc
# Outline: as §1
# [44] = biological target: GlcNAc(b1-3)Gal(b1-4)GlcNAc(b1-3)Gal(b1-4)GlcNAc(b1-3)Gal(b1-4)GlcNAc(b1-3)Gal(b1-4)GlcNAc(b1-2)Man(a1-3)[GlcNAc(b1-3)Gal(b1-4)GlcNAc(b1-3)Gal(b1-4)GlcNAc(b1-3)Gal(b1-4)GlcNAc(b1-3)Gal(b1-4)GlcNAc(b1-2)Man(a1-6)]Man(b1-4)GlcNAc(b1-4)GlcNAc
# Outline: as §1
# [45] = biological target: GlcNAc(b1-3)Gal(b1-4)GlcNAc(b1-3)Gal(b1-4)GlcNAc(b1-3)Gal(b1-4)GlcNAc(b1-3)Gal(b1-4)GlcNAc(b1-2)Man(a1-3)[GlcNAc(b1-3)Gal(b1-4)GlcNAc(b1-3)Gal(b1-4)GlcNAc(b1-3)Gal(b1-4)GlcNAc(b1-3)Gal(b1-4)GlcNAc(b1-2)Man(a1-6)]Man(b1-4)GlcNAc(b1-4)[Fuc(a1-6)]GlcNAc
# Outline: as §1
binder,measurement,setting,value
B1,glycan array binding signal (z-score),[1],-0.277
same,glycan array binding signal (z-score),[2],-0.246
same,glycan array binding signal (z-score),[3],-0.329
same,glycan array binding signal (z-score),[4],-0.124
same,glycan array binding signal (z-score),[5],-0.241
same,glycan array binding signal (z-score),[6],-0.332
same,glycan array binding signal (z-score),[7],-0.269
same,glycan array binding signal (z-score),[8],-0.291
same,glycan array binding signal (z-score),[9],-0.295
same,glycan array binding signal (z-score),[10],-0.24
same,glycan array binding signal (z-score),[11],-0.285
same,glycan array binding signal (z-score),[12],-0.368
same,glycan array binding signal (z-score),[13],-0.304
same,glycan array binding signal (z-score),[14],-0.236
same,glycan array binding signal (z-score),[15],0.641
same,glycan array binding signal (z-score),[16],-0.291
same,glycan array binding signal (z-score),[17],-0.145
same,glycan array binding signal (z-score),[18],-0.073
same,glycan array binding signal (z-score),[19],3.07
same,glycan array binding signal (z-score),[20],-0.309
same,glycan array binding signal (z-score),[21],1.58
same,glycan array binding signal (z-score),[22],-0.307
same,glycan array binding signal (z-score),[23],-0.383
same,glycan array binding signal (z-score),[24],-0.263
same,glycan array binding signal (z-score),[25],-0.07
same,glycan array binding signal (z-score),[26],-0.293
same,glycan array binding signal (z-score),[27],4.99
same,glycan array binding signal (z-score),[28],-0.369
same,glycan array binding signal (z-score),[29],-0.11
same,glycan array binding signal (z-score),[30],-0.269
same,glycan array binding signal (z-score),[31],-0.213
same,glycan array binding signal (z-score),[32],-0.205
same,glycan array binding signal (z-score),[33],-0.242
same,glycan array binding signal (z-score),[34],-0.233
same,glycan array binding signal (z-score),[35],5.62
same,glycan array binding signal (z-score),[36],-0.108
same,glycan array binding signal (z-score),[37],-0.256
same,glycan array binding signal (z-score),[38],-0.159
same,glycan array binding signal (z-score),[39],5.5
same,glycan array binding signal (z-score),[40],2.54
same,glycan array binding signal (z-score),[41],-0.156
same,glycan array binding signal (z-score),[42],5.16
same,glycan array binding signal (z-score),[43],1.38
same,glycan array binding signal (z-score),[44],-0.241
same,glycan array binding signal (z-score),[45],4.81
